This note sets out measurements from the supplement of paper PMC11417369.

± gives the standard deviation of the averaged measurements. The list shows a part of the results.

The subject of the assay is PfAP2-LT AP2 domain (GST-tagged). The assay is described as follows: gcPBM binding intensity (ln(normalized median fluorescence intensity)); higher = stronger DNA binding. The method in brief: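 Probes on an Agilent 4 × 180k array were primer-extended, double-stranded and 36 bp long, taken from intergenic genomic regions, with negative controls added. GST-tagged P. falciparum DNA-binding domains from E. coli, about 25 μg on average, were applied to the array for 1 h in 1× PBS containing 1% milk, 0.2 mg/ml BSA, 0.5% salmon testes DNA and 0.03% Triton X-100. Binding intensity, obtained after Alexa488 anti-GST antibody detection and a 488 nm scan, is the highest Masliner-normalised natural-log median intensity across replicate spots of either probe orientation.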
Take “TCAATATAAATTAGTTGTACAGTTTTTTTTAATTAT [XGTACX_site6358]”: the “gcPBM binding intensity (ln)” value stood at 8.55 ± 0.51.

Regarding “AATATAAATAAAAACACACACAATGGTACCTATATA [CACACA_site7688]”, the “gcPBM binding intensity (ln)” value was found to be 9.3 ± 0.39. With “TTTAAATAATCTAGGTGTACTTTCCTTTATAAATGT [XGTACX_site7859]”, the “gcPBM binding intensity (ln)” value is 8.62 ± 0.52. As to “AGAATACATATATGAACACACAGAGTTTTAAAAAAT [CACACA_site2735]”, the “gcPBM binding intensity (ln)” value was 9.11 ± 0.47. Regarding “TACAGACAGAAATGCACACACATATATATATATATA [CACACA_site2283]”, the “gcPBM binding intensity (ln)” value worked out at 10.2. For the sequence “TATTTGTTTGAATTTTTTTTTTTTTTTTTTTATGTG [CACACA_negctrl_site966]”, the “gcPBM binding intensity (ln)” value came out at 8.34 ± 0.58. Turning to “GTGTTAATTTTAAATTGTACAAAATTTATATGATTT [XGTACX_site348]”, the “gcPBM binding intensity (ln)” value came to 8.53 ± 0.35. Under “GAAAAGCATAGATGCACACATATATATATATATATA [CACACA_site2169]” stands 10.18 ± 0.014; under “AAAATATATGAAAACAGTACATATAAAAATTAAAAA [XGTACX_site2594]”, 8.75 ± 0.64; under “TTACACATATATATAAATATATATAAATATATATAT [CACACA_negctrl_site150]”, 8.63 ± 0.35. Next, “ATATACTTTTTTTTTTTTTTTTTAACGTTATTTATG [CACACA_negctrl_site1277]”: 8.79 ± 0.53. “ATTTTTATACGTTTTTTTTTTTTTTTTTTTTATTTA [CACACA_negctrl_site1142]”: the “gcPBM binding intensity (ln)” value amounted to 8.65 ± 0.61.

As for “ATTAATTTTGGTTCATGTACATAAGAAATAAACTCT [XGTACX_site4534]”, the “gcPBM binding intensity (ln)” value came to 8.66 ± 0.35. Regarding “TATAACATAATATAGACACACACATGTACTTATGCC [CACACA_site8547]”, the “gcPBM binding intensity (ln)” value came to 9.4 ± 0.34. Consider “CACTACATTATGTCATAAATGCATACATAAACATAT [GTGCAC_negctrl_site513]”, for which the “gcPBM binding intensity (ln)” value amounted to 8.85 ± 0.43. On to “TTTATATTTCAATTTTGTGCTTCGCAAATTGAGAGG [TGCATGCA_negctrl_site327]”, for which the “gcPBM binding intensity (ln)” value came to 8.29 ± 0.38. Regarding “TTTTAACAAAAAAAAAGAAAAGAAAAGAAAATAATA [XGTACX_negctrl_site530]”, the “gcPBM binding intensity (ln)” value was determined as 8.29 ± 0.52.

Consider “TTAACTCTGGAGAAAAGTACATAGTATCTGGTAACA [XGTACX_site4941]”, for which the “gcPBM binding intensity (ln)” value was found to be 8.63 ± 0.49. In the case of “TATCCATATTTGTTCACACACACACCGATTTATATA [CACACA_site5888]”, the “gcPBM binding intensity (ln)” value was 9.69 ± 0.33. Consider “CAAAAAACAACAGATCGTACAAAATATTATATATAT [XGTACX_site2285]”, for which the “gcPBM binding intensity (ln)” value came to 8.97 ± 0.38. Regarding “TTGAAAAATGAGCACACACACAAATACATACATATT [CACACA_site3231]”, the “gcPBM binding intensity (ln)” value came to 9.81 ± 0.23. Under “ATTATAAAAATATATTGTACACAAAAATGTTTATAT [XGTACX_site5066]” stands 8.55 ± 0.42; under “CCAAATTTATTTTGTAGTACTCCGTATAGATCAACA [XGTACX_site7945]”, 8.59 ± 0.33; under “TGAGATATAAAAATATGTACTTATGTATAAATATTT [XGTACX_site7746]”, 8.64 ± 0.46. As to “AAGTTTTTTTTTAACACACACATAATAAAATAAATA [CACACA_site446]”, the “gcPBM binding intensity (ln)” value came out at 8.93 ± 0.46.

In the case of “TATATTTATATCCACTTCGTTTAACGCACAGATATA [CACACA_negctrl_site954]”, the “gcPBM binding intensity (ln)” value turned out to be 8.79 ± 0.49.

As to “ATGTTACACCGACACACACACATAAAAAAACAAAAA [CACACA_site5750]”, the “gcPBM binding intensity (ln)” value was 9.61 ± 0.42.

As for “AAATTATATATATTACGTACATAGAACTTTACAGAA [XGTACX_site6646]”, the “gcPBM binding intensity (ln)” value was found to be 8.61 ± 0.43. As to “ATATACTATATTTTAACACACAAAAAAAAAAAATAT [CACACA_site1091]”, the “gcPBM binding intensity (ln)” value is 8.81 ± 0.54. Take “TGGACAATTGTTTATTGTACTTAAATTTTATGTTCT [XGTACX_site8974]”: the “gcPBM binding intensity (ln)” value turned out to be 8.57 ± 0.57. As to “AAGAAATAAAAAGAATGTACACAATATGTATTATAA [XGTACX_site4733]”, the “gcPBM binding intensity (ln)” value was 8.8 ± 0.47. Take “AGCATTTTAAGTTATACACACATTTTGAATCTATAT [CACACA_site7599]”: the “gcPBM binding intensity (ln)” value is 9.01 ± 0.42. Turning to “ATAAATAAATAAATAAATAAATATACATATACATAT [CACACA_negctrl_site205]”, the “gcPBM binding intensity (ln)” value stood at 8.72 ± 0.47.

Regarding “ATATTTTTTAATTTTACACACCATATAAAATAATTC [CACACA_site7339]”, the “gcPBM binding intensity (ln)” value was 8.71 ± 0.39. In the case of “AAATATATTATATGTACACACAAAATTAAGGGATAT [CACACA_site1375]”, the “gcPBM binding intensity (ln)” value was found to be 9.27 ± 0.43. As for “ATCAATACTTTTTTGGGTACATAAATATATATATAT [XGTACX_site8436]”, the “gcPBM binding intensity (ln)” value is 8.83 ± 0.34. As for “AACTAATTCATGTTATATTAGATAAAAAAAAAAAAA [TGCATGCA_negctrl_site340]”, the “gcPBM binding intensity (ln)” value came to 8.38 ± 0.46. Next, “TTTTTTTTGTTCATTGTGCACATTGCTTGCATGGAA [GTGCAC_site9693]”: 8.82 ± 0.51.

Turning to “AAAATAATAAATAAATGTACATATATATATATATAT [XGTACX_site3078]”, the “gcPBM binding intensity (ln)” value was determined as 9.71 ± 0.12. As for “ATAAGATTATACAATTGTACGTTGTTCAAGATAAGG [XGTACX_site191]”, the “gcPBM binding intensity (ln)” value was 8.8 ± 0.42.

As for “GTGTTTGAAAATAAAGCATGCAAATATATTTGAAAT [TGCATGCA_site386]”, the “gcPBM binding intensity (ln)” value worked out at 9.04 ± 0.38. Under “ATAATATATTTATAATGTACAAACCATTTGTATTAA [XGTACX_site4370]” stands 8.6 ± 0.45. Next, “TCTAACATATAATATTCACACACATATATATATTAT [CACACA_site8236]”: 9.21 ± 0.43; “ATTATTATTATATTTTGTACATATGTAACAATATAT [XGTACX_site5780]”: 8.88 ± 0.43; CATTAAAATTGAGAGATGCACTTTTTAAGACCTTGT: 8.46 ± 0.3.

As to “AAAAAAAATTAAATAAATAAATATACACATATATAT [GTGCAC_negctrl_site394]”, the “gcPBM binding intensity (ln)” value came to 8.57 ± 0.5. For “AAAACATTGTTTATGTGTACATAATTATATTTACAA [XGTACX_site6926]”, the “gcPBM binding intensity (ln)” value is 8.7 ± 0.52. Under “TTTTTTTTTTTTTTTTTTTTACCCCTTTTTCAAAAA [CACACA_negctrl_site1524]” stands 8.01 ± 0.48; under “TAAATATGTGTATGTAGTACATAGTGTTTTTTTTTT [XGTACX_site3748]”, 8.7 ± 0.38; under “ATATTATGAATTGTCACACATATATTTAAAAATGTA [CACACA_site4852]”, 8.49 ± 0.38. Take “TGCATATTACTTTTTCACATAAAAATGATCCGATTA [GTGCAC_negctrl_site526]”: the “gcPBM binding intensity (ln)” value came to 8.46 ± 0.46. Next, “AAAAAATGACTTAATATGAGCATATATTATGTTGTT [CACACA_negctrl_site1609]”: 8.71 ± 0.42. With “AAAATATAAAAATGAAGTACAAAAAAAAAAAAAAAA [XGTACX_site8132]”, the “gcPBM binding intensity (ln)” value was found to be 8.77 ± 0.51. Take “GTTATACACATCAACACACACATACAACGTGGTGTA [CACACA_site6677]”: the “gcPBM binding intensity (ln)” value was found to be 9.22 ± 0.37. Next, “TTATAATGAAATATATTCTTATTCTTTTTTTTTTTT [GTGCAC_negctrl_site384]”: 8.11 ± 0.72.
